In PubChem BioAssay AID1477 (National Center for Advancing Translational Sciences (NCATS), 2009):
Fewer than 10 of roughly 230,000 compounds were called active. The inconclusive results got no clear call from the source; some entries with a clear call stand among them for comparison. Calls come from the whole dose curve; as a rule, active = well fitted curve in the direction sought with a large enough effect; inconclusive = small, poorly fitted or top-dose-only effect, or effect the other way, or another doubt; inactive = no such curve, though single readings can be large or run the other way. Potencies of inconclusive entries are left out as doubtful fits.

Each molecule was assayed against Runt-related transcription factor 1 (Homo sapiens) + Core-binding factor subunit beta (Homo sapiens) (UniProt Q01196+Q13951) (assay: qHTS Assay for Compounds Blocking the Interaction Between CBF-beta and RUNX1 for the Treatment of Acute Myeloid Leukemia). Conditions: AlphaScreen CBFb-His/RUNX1-biotin binding, biochemical; activity, negative = inhibition: at 59.8 µM (top of the series) unless noted.
UniProt Q01196, sequence (Q01196 whole entry, looked up): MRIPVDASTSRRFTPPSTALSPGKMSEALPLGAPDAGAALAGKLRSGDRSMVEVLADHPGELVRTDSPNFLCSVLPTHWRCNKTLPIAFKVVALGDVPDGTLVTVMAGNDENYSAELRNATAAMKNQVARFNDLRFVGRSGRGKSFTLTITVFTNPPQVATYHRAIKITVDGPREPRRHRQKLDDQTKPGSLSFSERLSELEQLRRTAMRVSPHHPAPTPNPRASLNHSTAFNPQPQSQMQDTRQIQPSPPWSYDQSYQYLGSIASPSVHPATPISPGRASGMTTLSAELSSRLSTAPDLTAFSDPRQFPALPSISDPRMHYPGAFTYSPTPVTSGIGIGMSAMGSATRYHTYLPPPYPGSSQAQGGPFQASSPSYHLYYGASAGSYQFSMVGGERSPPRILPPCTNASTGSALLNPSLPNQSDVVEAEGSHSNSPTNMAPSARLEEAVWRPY
UniProt Q01196, sequence (Q13951 whole entry, looked up): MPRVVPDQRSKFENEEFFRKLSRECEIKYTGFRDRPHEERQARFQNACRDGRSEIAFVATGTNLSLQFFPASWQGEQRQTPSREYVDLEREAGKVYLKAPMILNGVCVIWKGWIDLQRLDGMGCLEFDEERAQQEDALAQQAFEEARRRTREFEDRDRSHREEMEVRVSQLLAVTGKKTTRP
Method in brief: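 Read-out: AlphaScreen. Format: His-CBF-beta with biotinylated RUNX1 (30 nM each) preincubated 20 min, compound 15 min, Ni-chelate plus streptavidin beads 90 min; room temperature throughout.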
Throughout, for activity, negative = inhibition: % of control where 0% means no effect.

SMILES	Potency	activity, negative = inhibition
CCCC[n+]1ccc(-c2nc3ccc([N+](=O)[O-])cc3[nH]2)cc1	inconclusive [activator, single point]	
O=C(CCn1ccc2ccccc21)Nc1ccc(N2CCOCC2)cc1	inconclusive [inhibitor, single point]	
COc1ccc(C)cc1-n1nnnc1SCC(=O)NC(=O)NCc1ccco1	inconclusive [inhibitor, single point]	
CN(C)c1nc(SCCOC(=O)c2ccccc2)nc(N(C)C)n1	inconclusive [activator, single point]	
CC(C)(C)C(=O)OCc1nc(-c2ccc(Cl)cc2)cs1	inconclusive [activator, partial curve]	
O=C(O)CNC(=O)CC1S/C(=N/N=C/c2ccccc2O)NC1=O (configuration not stated)	inconclusive [inhibitor, single point]	
O=C(NC(=S)Nc1cc(C(F)(F)F)ccc1N1CCOCC1)c1sc2ccccc2c1Cl		inactive: -0.528%
CCN(CC)c1ccc2c(c1)CCCN2	inconclusive [inhibitor, partial curve]	
O=C(Oc1ccc2cc(Br)ccc2c1)N1CCCCCC1	inconclusive [activator, single point]	
CC(=O)n1cc(N(C(=O)CCl)c2ccc(C)cc2)c2ccccc21		inactive: 0.372%
CC(C)CSc1n[nH]c(N)n1		inactive: -0.333%
Cc1ccccc1CSc1ccc2nnc(-c3ccccn3)n2n1	inconclusive [activator, single point]	
O=C(N/C(=C\c1ccc(Cl)cc1)C(=O)N1CCOCC1)c1ccc([N+](=O)[O-])cc1	inconclusive [activator, full curve, poor fit]	
CC(C)OC(=O)COc1ccc(-c2ccccc2)cc1	inconclusive [activator, single point]	
CCOC(=O)C(NCc1ccccn1)(NC(=O)c1cccnc1)C(F)(F)F (configuration not stated)		inactive: -7.7%
C[C@H](NS(=O)(=O)c1ccccc1)C(=O)OCC(=O)NC(=O)Nc1ccc2c(c1)OCCO2		inactive: 5.92%
COc1cc(OC)cc(C(=O)N[C@H](C(=O)OCC(=O)N2CCc3ccccc32)C(C)C)c1	inconclusive [inhibitor, single point]	
O=[N+]([O-])c1nn(-c2ccccc2)n(O)c1=NCCc1ccccc1	inconclusive [inhibitor, single point]	
Cc1cc(NC(c2ccc(Cl)cc2)c2ccc3cccnc3c2O)no1 (configuration not stated)	inconclusive [inhibitor, single point]	
O=C1c2cccc(OCC(=O)N3N=C(c4cccs4)CC3c3ccc(F)cc3)c2CCN1Cc1cccnc1 (configuration not stated)	inconclusive [inhibitor, single point]	
O=C1OCCN1C(=O)[C@H]1[C@H](c2ccc(F)cc2)C(c2cccc(Cl)c2)=NN1c1ccc(Br)cc1	inconclusive [activator, partial curve]	
Cc1cccc(N2CCN(C(=O)CCCSc3nc4ccccc4[nH]3)CC2)c1C		inactive: -2.33%
O=C(Nc1ccc(Cl)cc1)OCCn1nnnc1C(c1ccccc1Cl)N1CCOCC1 (configuration not stated)		inactive: 1.31%
CC(Oc1ccc(O)cc1)(P(=O)(O)O)P(=O)(O)O		inactive: 0.633% [at 21.7 µM]

SMILES	Potency	activity, negative = inhibition
CC1(C)Oc2nc3ccccc3n2/C1=C\C#N	inconclusive [activator, full curve, poor fit]	
Cc1ccccc1Nc1scc(-c2ccc(Cl)cc2)[n+]1-c1ccccc1C	inconclusive [inhibitor, single point]	
O=C(CN1CCOCC1)Nc1cc([N+](=O)[O-])ccc1Cl		inactive: 8.99%
Cc1ccc(C(C)C)cc1OCCCCN1CCCC1		inactive: 2.64%
CC(C)Nc1nnc(SCC(=O)Nc2ccc3c(c2)C(=O)c2ccccc2C3=O)s1		inactive: -23.8%
COc1cccc(C2CC(c3ccc(Br)cc3)=NN2C(=O)c2ccncc2)c1OC (configuration not stated)	inconclusive [activator, single point]	
Clc1ccc2oc(-c3cccnc3NCc3ccccc3)nc2c1	inconclusive [activator, full curve, poor fit]	
CCOc1ccc(NC(=O)CC(NCc2ccccn2)C(=O)O)cc1 (configuration not stated)	inconclusive [inhibitor, single point]	
COc1ccc(CN=C(Nc2ccccc2)SC2CC(=O)NC2=O)cc1 (configuration not stated)	inconclusive [inhibitor, partial curve]	
COC(=O)c1cc(C)sc1NC(=O)CC1Nc2ccccc2NC1=O (configuration not stated)	inconclusive [activator, partial curve]	
Cc1cc(C)n(C(=O)c2ccc(Cn3nc(C)c(Br)c3C)o2)n1		inactive: -0.065%
N#Cc1cc(-c2ccccc2)nc(NN)n1	inconclusive [inhibitor, single point]	
C=CCSC1=C(C#N)C(c2ccc(OCC)cc2)CC(=O)N1 (configuration not stated)		inactive: -2.24%
Cc1nn(-c2ccccc2)c(N)c1N=Nc1ccc(Cl)cc1	inconclusive [inhibitor, single point]	
CCOc1cccc(/C=N/Nc2ccc(S(=O)(=O)N(CC)CC)cn2)c1O	inconclusive [inhibitor, full curve]	
O=C(NNc1nc(=O)c2cccnc2s1)c1ccccc1O	inconclusive [activator, single point]	
O=C(N/N=C/c1ccccn1)c1cccc(S(=O)(=O)Nc2ccccc2Cl)c1	inconclusive [inhibitor, partial curve]	
COCC(=O)Nc1nc2ccccc2s1		inactive: -0.219%
CC(N)(C(=O)O)c1cccc(CC(=O)O)c1 (configuration not stated)		inactive: 28.1%
CC(=O)Nc1ccc(S(=O)(=O)Nc2nc3ccccc3nc2Sc2nncn2C)cc1	inconclusive [inhibitor, single point]	
Cc1c(Cl)cccc1Nc1ccccc1C(=O)O	inactive	
CCOc1ccc(NS(=O)(=O)c2ccc(SC)cc2)cc1		inactive: 20.2%
CCOC(=O)C1=NN(c2ccc(C)cc2)CC1C(=O)OC (configuration not stated)	inconclusive [activator, full curve, poor fit]	
c1ccc(-n2nnnc2SCCCSc2nc3ccccc3s2)cc1	inconclusive [activator, partial curve]	

SMILES	Potency	activity, negative = inhibition
COc1cccc(/C=N/NC(=O)C[n+]2ccccc2)c1O	inconclusive [inhibitor, partial curve]	
NNC(=O)c1ccc(Oc2cc(Cl)cc(Cl)c2)o1		inactive: 4.24%
COc1ccc(C(=O)CSc2nnc(CNC(=O)c3ccc(OC)cc3)n2C)cc1		inactive: 4.99%
Cc1ccc(C(=O)OCc2ccc3c(c2)OCO3)cc1S(=O)(=O)N1CCCCC1	inconclusive [activator, single point]	
CSc1nc(N)n2nc(-c3ccccc3)cc2n1		inactive: 7.54%
O=C(O)c1ccc(N/N=C/c2cc3c(cc2[N+](=O)[O-])OCO3)cc1	inconclusive [inhibitor, single point]	
CCOc1ccc(S(=O)(=O)N(C(=O)c2ccco2)c2cc3sc(=O)oc3c3ccccc23)cc1	inconclusive [inhibitor, single point]	
O=C1NCCCC1C(=O)N/N=C/c1cc([N+](=O)[O-])ccc1O (configuration not stated)	inconclusive [inhibitor, partial curve]	
CC1CC2C3CCC4=CC(=O)C=C[C@@]4(C)[C@]3(F)C(O)C[C@]2(C)[C@]1(O)C(=O)COP(=O)(O)O (some centres not stated)	inconclusive [activator, partial curve]	
O=C(Nc1ccc(Nc2ccccc2)cc1)C(Cl)(Cl)Cl	inconclusive [inhibitor, single point]	
COc1cc2[nH]c(=S)n(Cc3ccccc3)c(=O)c2cc1OC		inactive: 7.75%
CCOC(=O)C(O)(c1ccc(NC(=O)c2ccc(Cl)c(Cl)c2)cc1)C(F)(F)F (configuration not stated)		inactive: 7.5%
CCN1C(=O)/C(=C\C=C2/C=CC=CN2CC)SC1=S	inconclusive [inhibitor, single point]	
Cn1cccc1/C=C1\CCC/C(=C\c2cccn2C)C1=O	inconclusive [inhibitor, single point]	
O=S(=O)(Nc1nc2ccccc2nc1NCCN1CCOCC1)c1cccc(Cl)c1		inactive: 3.7%
CN(C)c1ccc(NC(=O)CSc2nc3ccccc3c(=O)n2C2CCCCC2)cc1	inconclusive [inhibitor, full curve]	
CCOc1ccc(Cc2c(Cl)nc(SC)nc2N(C)C)cc1	inconclusive [activator, partial curve]	
CC1=C/C(=N\OS(=O)(=O)c2ccccc2)C=CC1=O	inconclusive [inhibitor, single point]	
CC1CCCN(C(=O)c2ccc3c(c2NCCO)C(=O)c2ccccc2C3=O)C1 (configuration not stated)	inconclusive [inhibitor, single point]	
O=C(CCCO)N/N=C/c1cc(Br)ccc1O	inconclusive [inhibitor, single point]	
CCC(Sc1ccc2nnc(CCNS(=O)(=O)c3ccc(OC)cc3)n2n1)C(=O)OC (configuration not stated)	inconclusive [inhibitor, single point]	
Cc1[nH]c2ccccc2c1/C=N/NC(=S)NCc1ccccc1	inconclusive [inhibitor, partial curve]	
ClC1=C(Cl)C(Cl)=C(Cl)C1=C/C=C/c1ccccc1	inconclusive [inhibitor, single point]	
CN(C)c1cccc(C(=O)OCC(=O)Nc2nccs2)c1	inconclusive [inhibitor, partial curve]	
